Molecular target: T1, Ph14372 (CYP71BE54) (Sinopodophyllum hexandrum, UniProt A0A0N9HT29)
T1 sequence (A0A0N9HT29 1-507): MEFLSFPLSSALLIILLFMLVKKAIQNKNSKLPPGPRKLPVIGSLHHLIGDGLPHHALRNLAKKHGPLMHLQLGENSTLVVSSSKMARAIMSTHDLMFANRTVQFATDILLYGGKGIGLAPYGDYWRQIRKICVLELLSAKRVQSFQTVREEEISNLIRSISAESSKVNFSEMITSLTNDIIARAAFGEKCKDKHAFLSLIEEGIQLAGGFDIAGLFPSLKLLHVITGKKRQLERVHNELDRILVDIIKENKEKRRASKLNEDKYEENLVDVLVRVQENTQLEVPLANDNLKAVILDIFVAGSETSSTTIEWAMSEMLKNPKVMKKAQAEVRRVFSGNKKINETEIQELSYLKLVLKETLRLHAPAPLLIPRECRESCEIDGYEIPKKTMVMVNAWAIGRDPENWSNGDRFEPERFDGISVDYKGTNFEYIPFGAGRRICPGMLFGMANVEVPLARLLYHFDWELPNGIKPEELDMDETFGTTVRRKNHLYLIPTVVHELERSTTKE
Experiment: yeast microsome turnover, LC-MS
Assay type: biochemical
Settings: 4′-O-demethylation

COc1cc([C@@H]2c3cc4c(cc3C[C@H]3COC(=O)[C@@H]32)OCO4)cc(OC)c1OC [(−)-deoxypodophyllotoxin]
yeast microsome turnover, LC-MS: isolated CYP71BE54 microsomes accepted (−)-deoxypodophyllotoxin as a substrate
